# Data taken from publication PMC12820563, “FoxP3 forms a head-to-head dimer in vivo and stabilizes its multimerization on adjacent microsatellites”.
# The other results are listed elsewhere or left out.
# Target: T1, MBP-FoxP1dN (Mus musculus, UniProt P58462 326-579)
# T1 sequence: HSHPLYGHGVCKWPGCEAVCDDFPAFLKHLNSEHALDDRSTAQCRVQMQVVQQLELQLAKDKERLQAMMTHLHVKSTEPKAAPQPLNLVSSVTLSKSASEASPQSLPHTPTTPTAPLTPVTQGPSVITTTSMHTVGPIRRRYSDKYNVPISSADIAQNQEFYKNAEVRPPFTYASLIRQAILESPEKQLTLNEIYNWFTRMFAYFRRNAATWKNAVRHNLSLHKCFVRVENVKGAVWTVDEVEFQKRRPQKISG
# Assay: PD-seq (MBP pull-down with sequencing); 20 mM Tris-HCl pH 7.5, 100 mM NaCl, 1.5 mM MgCl2, 0.4 uM protein, 0.1 uM dsDNA library, 30 min, room temperature, amylose pull-down; high values mean tight binding
# Settings: protein: recombinant; tags: His6-MBP; chain copies: 2; dsDNA, one strand shown
# Procedure, shortened: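 Binding is given as reads-per-million enrichment, pull-down over input, with replicates pooled. The bait was an N-terminus-lacking mouse FoxP3 or FoxP1 fragment with a His6-MBP tag, expressed in E. coli and used at 0.4 µM with 0.1 µM Klenow-filled degenerate double-stranded DNA library for 30 min at room temperature in Tris pH 7.5 buffer with NaCl and MgCl2. Amylose resin pull-down with three washes was followed by proteinase K release, PCR barcoding and Illumina sequencing.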
row,Sequence,binding signal
1,GATGATTGTTCTCCCAGCTGATGAATTTCTCCCTTCGAGTAAACAAATTTTCCTAATCTTTCTGTTCAAGCGCCATCTAC,0.948 RPM ratio (pull-down/input)
2,GATGATTGTTCTCCCAGCTGATGAATTGAATTGCTCGAGTAAACAAATTTTCCTAATCTTTCTGTTCAAGCGCCATCTAC,0.902 RPM ratio (pull-down/input)
3,GATGATTGTTCTCCCAGCTGATGAATTGGTGAGTTCGAGTAAACAAATTTTCCTAATCTTTCTGTTCAAGCGCCATCTAC,0.982 RPM ratio (pull-down/input)
4,GATGATTGTTCTCCCAGCTGATGAATTGCCGCGATCGAGTAAACAAATTTTCCTAATCTTTCTGTTCAAGCGCCATCTAC,0.925 RPM ratio (pull-down/input)
5,GATGATTGTTCTCCCAGCTGATGAATTGTATTTTTCGAGTAAACAAATTTTCCTAATCTTTCTGTTCAAGCGCCATCTAC,1.8 RPM ratio (pull-down/input)
6,GATGATTGTTCTCCCAGCTGATGAATTGGCGGACTCGAGTAAACAAATTTTCCTAATCTTTCTGTTCAAGCGCCATCTAC,0.832 RPM ratio (pull-down/input)
7,GATGATTGTTCTCCCAGCTGATGAATTCCGAAGATCGAGTAAACAAATTTTCCTAATCTTTCTGTTCAAGCGCCATCTAC,0.759 RPM ratio (pull-down/input)
8,GATGATTGTTCTCCCAGCTGATGAATTAGCTAGTTCGAGTAAACAAATTTTCCTAATCTTTCTGTTCAAGCGCCATCTAC,0.968 RPM ratio (pull-down/input)
9,GATGATTGTTCTCCCAGCTGATGAATTAACGGTATCGAGTAAACAAATTTTCCTAATCTTTCTGTTCAAGCGCCATCTAC,1 RPM ratio (pull-down/input)
10,GATGATTGTTCTCCCAGCTGATGAATTCGAATGGTCGAGTAAACAAATTTTCCTAATCTTTCTGTTCAAGCGCCATCTAC,0.785 RPM ratio (pull-down/input)
11,GATGATTGTTCTCCCAGCTGATGAATTGGCGCACTCGAGTAAACAAATTTTCCTAATCTTTCTGTTCAAGCGCCATCTAC,0.912 RPM ratio (pull-down/input)
12,GATGATTGTTCTCCCAGCTGATGAATTAGCCAGCTCGAGTAAACAAATTTTCCTAATCTTTCTGTTCAAGCGCCATCTAC,0.673 RPM ratio (pull-down/input)
13,GATGATTGTTCTCCCAGCTGATGAATTCTAGAACTCGAGTAAACAAATTTTCCTAATCTTTCTGTTCAAGCGCCATCTAC,0.811 RPM ratio (pull-down/input)
14,GATGATTGTTCTCCCAGCTGATGAATTAATCTACTCGAGTAAACAAATTTTCCTAATCTTTCTGTTCAAGCGCCATCTAC,0.882 RPM ratio (pull-down/input)
15,GATGATTGTTCTCCCAGCTGATGAATTCGTTCCTTCGAGTAAACAAATTTTCCTAATCTTTCTGTTCAAGCGCCATCTAC,0.857 RPM ratio (pull-down/input)
16,GATGATTGTTCTCCCAGCTGATGAATTTCTTAAATCGAGTAAACAAATTTTCCTAATCTTTCTGTTCAAGCGCCATCTAC,1.06 RPM ratio (pull-down/input)
17,GATGATTGTTCTCCCAGCTGATGAATTCGAAGCGTCGAGTAAACAAATTTTCCTAATCTTTCTGTTCAAGCGCCATCTAC,0.857 RPM ratio (pull-down/input)
18,GATGATTGTTCTCCCAGCTGATGAATTATACCGGTCGAGTAAACAAATTTTCCTAATCTTTCTGTTCAAGCGCCATCTAC,0.929 RPM ratio (pull-down/input)
19,GATGATTGTTCTCCCAGCTGATGAATTCAGTATTTCGAGTAAACAAATTTTCCTAATCTTTCTGTTCAAGCGCCATCTAC,0.942 RPM ratio (pull-down/input)
20,GATGATTGTTCTCCCAGCTGATGAATTGATATCCTCGAGTAAACAAATTTTCCTAATCTTTCTGTTCAAGCGCCATCTAC,0.989 RPM ratio (pull-down/input)
21,GATGATTGTTCTCCCAGCTGATGAATTGATAGTCTCGAGTAAACAAATTTTCCTAATCTTTCTGTTCAAGCGCCATCTAC,0.956 RPM ratio (pull-down/input)

row,Sequence,binding signal
1,GATGATTGTTCTCCCAGCTGATGAATTGCCGACATCGAGTAAACAAATTTTCCTAATCTTTCTGTTCAAGCGCCATCTAC,1.05 RPM ratio (pull-down/input)
2,GATGATTGTTCTCCCAGCTGATGAATTGGATCACTCGAGTAAACAAATTTTCCTAATCTTTCTGTTCAAGCGCCATCTAC,0.896 RPM ratio (pull-down/input)
3,GATGATTGTTCTCCCAGCTGATGAATTATCAAAGTCGAGTAAACAAATTTTCCTAATCTTTCTGTTCAAGCGCCATCTAC,0.982 RPM ratio (pull-down/input)
4,GATGATTGTTCTCCCAGCTGATGAATTGTACGGTTCGAGTAAACAAATTTTCCTAATCTTTCTGTTCAAGCGCCATCTAC,0.973 RPM ratio (pull-down/input)
5,GATGATTGTTCTCCCAGCTGATGAATTAGCTCCTTCGAGTAAACAAATTTTCCTAATCTTTCTGTTCAAGCGCCATCTAC,0.814 RPM ratio (pull-down/input)
6,GATGATTGTTCTCCCAGCTGATGAATTCCGTATGTCGAGTAAACAAATTTTCCTAATCTTTCTGTTCAAGCGCCATCTAC,0.847 RPM ratio (pull-down/input)
7,GATGATTGTTCTCCCAGCTGATGAATTATTTCGGTCGAGTAAACAAATTTTCCTAATCTTTCTGTTCAAGCGCCATCTAC,1.04 RPM ratio (pull-down/input)
8,GATGATTGTTCTCCCAGCTGATGAATTCAGGAGGTCGAGTAAACAAATTTTCCTAATCTTTCTGTTCAAGCGCCATCTAC,0.735 RPM ratio (pull-down/input)
9,GATGATTGTTCTCCCAGCTGATGAATTGTGCCCGTCGAGTAAACAAATTTTCCTAATCTTTCTGTTCAAGCGCCATCTAC,0.933 RPM ratio (pull-down/input)
10,GATGATTGTTCTCCCAGCTGATGAATTTAGGCGTTCGAGTAAACAAATTTTCCTAATCTTTCTGTTCAAGCGCCATCTAC,0.984 RPM ratio (pull-down/input)
11,GATGATTGTTCTCCCAGCTGATGAATTTCGGCAATCGAGTAAACAAATTTTCCTAATCTTTCTGTTCAAGCGCCATCTAC,1.03 RPM ratio (pull-down/input)
12,GATGATTGTTCTCCCAGCTGATGAATTGTATCCTTCGAGTAAACAAATTTTCCTAATCTTTCTGTTCAAGCGCCATCTAC,1.17 RPM ratio (pull-down/input)
13,GATGATTGTTCTCCCAGCTGATGAATTGCTCGAGTCGAGTAAACAAATTTTCCTAATCTTTCTGTTCAAGCGCCATCTAC,0.899 RPM ratio (pull-down/input)
14,GATGATTGTTCTCCCAGCTGATGAATTCGCAATGTCGAGTAAACAAATTTTCCTAATCTTTCTGTTCAAGCGCCATCTAC,0.975 RPM ratio (pull-down/input)
15,GATGATTGTTCTCCCAGCTGATGAATTCCGTCAATCGAGTAAACAAATTTTCCTAATCTTTCTGTTCAAGCGCCATCTAC,0.997 RPM ratio (pull-down/input)
16,GATGATTGTTCTCCCAGCTGATGAATTACCCCATTCGAGTAAACAAATTTTCCTAATCTTTCTGTTCAAGCGCCATCTAC,1.08 RPM ratio (pull-down/input)
17,GATGATTGTTCTCCCAGCTGATGAATTTAGTGGTTCGAGTAAACAAATTTTCCTAATCTTTCTGTTCAAGCGCCATCTAC,1.05 RPM ratio (pull-down/input)
18,GATGATTGTTCTCCCAGCTGATGAATTGGTATAGTCGAGTAAACAAATTTTCCTAATCTTTCTGTTCAAGCGCCATCTAC,1.05 RPM ratio (pull-down/input)
19,GATGATTGTTCTCCCAGCTGATGAATTGAATCGTTCGAGTAAACAAATTTTCCTAATCTTTCTGTTCAAGCGCCATCTAC,0.877 RPM ratio (pull-down/input)
20,GATGATTGTTCTCCCAGCTGATGAATTAGCTAGGTCGAGTAAACAAATTTTCCTAATCTTTCTGTTCAAGCGCCATCTAC,0.861 RPM ratio (pull-down/input)
21,GATGATTGTTCTCCCAGCTGATGAATTGTCCCCGTCGAGTAAACAAATTTTCCTAATCTTTCTGTTCAAGCGCCATCTAC,0.999 RPM ratio (pull-down/input)

row,Sequence,binding signal
1,GATGATTGTTCTCCCAGCTGATGAATTTCGCCCTTCGAGTAAACAAATTTTCCTAATCTTTCTGTTCAAGCGCCATCTAC,0.806 RPM ratio (pull-down/input)
2,GATGATTGTTCTCCCAGCTGATGAATTTACGTTGTCGAGTAAACAAATTTTCCTAATCTTTCTGTTCAAGCGCCATCTAC,1.44 RPM ratio (pull-down/input)
3,GATGATTGTTCTCCCAGCTGATGAATTGAGGCTTTCGAGTAAACAAATTTTCCTAATCTTTCTGTTCAAGCGCCATCTAC,0.909 RPM ratio (pull-down/input)
4,GATGATTGTTCTCCCAGCTGATGAATTCTGTCTATCGAGTAAACAAATTTTCCTAATCTTTCTGTTCAAGCGCCATCTAC,1.04 RPM ratio (pull-down/input)
5,GATGATTGTTCTCCCAGCTGATGAATTCACCGAGTCGAGTAAACAAATTTTCCTAATCTTTCTGTTCAAGCGCCATCTAC,0.819 RPM ratio (pull-down/input)
6,GATGATTGTTCTCCCAGCTGATGAATTAATATTCTCGAGTAAACAAATTTTCCTAATCTTTCTGTTCAAGCGCCATCTAC,0.907 RPM ratio (pull-down/input)
7,GATGATTGTTCTCCCAGCTGATGAATTACCAAGCTCGAGTAAACAAATTTTCCTAATCTTTCTGTTCAAGCGCCATCTAC,0.915 RPM ratio (pull-down/input)
8,GATGATTGTTCTCCCAGCTGATGAATTAAATTCTTCGAGTAAACAAATTTTCCTAATCTTTCTGTTCAAGCGCCATCTAC,0.933 RPM ratio (pull-down/input)
9,GATGATTGTTCTCCCAGCTGATGAATTGAGATCGTCGAGTAAACAAATTTTCCTAATCTTTCTGTTCAAGCGCCATCTAC,0.837 RPM ratio (pull-down/input)
10,GATGATTGTTCTCCCAGCTGATGAATTTCACGTGTCGAGTAAACAAATTTTCCTAATCTTTCTGTTCAAGCGCCATCTAC,0.808 RPM ratio (pull-down/input)
11,GATGATTGTTCTCCCAGCTGATGAATTGTTTGGGTCGAGTAAACAAATTTTCCTAATCTTTCTGTTCAAGCGCCATCTAC,1.79 RPM ratio (pull-down/input)
12,GATGATTGTTCTCCCAGCTGATGAATTGTTCTACTCGAGTAAACAAATTTTCCTAATCTTTCTGTTCAAGCGCCATCTAC,1.15 RPM ratio (pull-down/input)
13,GATGATTGTTCTCCCAGCTGATGAATTTACAATTTCGAGTAAACAAATTTTCCTAATCTTTCTGTTCAAGCGCCATCTAC,1.4 RPM ratio (pull-down/input)
14,GATGATTGTTCTCCCAGCTGATGAATTCGCCTACTCGAGTAAACAAATTTTCCTAATCTTTCTGTTCAAGCGCCATCTAC,0.81 RPM ratio (pull-down/input)
15,GATGATTGTTCTCCCAGCTGATGAATTGCCATCGTCGAGTAAACAAATTTTCCTAATCTTTCTGTTCAAGCGCCATCTAC,0.975 RPM ratio (pull-down/input)
16,GATGATTGTTCTCCCAGCTGATGAATTGAGCACGTCGAGTAAACAAATTTTCCTAATCTTTCTGTTCAAGCGCCATCTAC,0.881 RPM ratio (pull-down/input)
17,GATGATTGTTCTCCCAGCTGATGAATTGGAAAGTTCGAGTAAACAAATTTTCCTAATCTTTCTGTTCAAGCGCCATCTAC,0.81 RPM ratio (pull-down/input)
18,GATGATTGTTCTCCCAGCTGATGAATTCAGTTGTTCGAGTAAACAAATTTTCCTAATCTTTCTGTTCAAGCGCCATCTAC,1.33 RPM ratio (pull-down/input)
19,GATGATTGTTCTCCCAGCTGATGAATTCTACTATTCGAGTAAACAAATTTTCCTAATCTTTCTGTTCAAGCGCCATCTAC,0.911 RPM ratio (pull-down/input)
20,GATGATTGTTCTCCCAGCTGATGAATTAATCGAGTCGAGTAAACAAATTTTCCTAATCTTTCTGTTCAAGCGCCATCTAC,0.914 RPM ratio (pull-down/input)
21,GATGATTGTTCTCCCAGCTGATGAATTACAACGCTCGAGTAAACAAATTTTCCTAATCTTTCTGTTCAAGCGCCATCTAC,1.18 RPM ratio (pull-down/input)
